Results from the supplement of paper PMC4967469.
Lines with a small IC50 respond at low doses; fits outside the tested doses are given as limits. AUC sums up the same curve from the lowest dose to the 256-fold higher top dose; values near 1 show little effect. For part of these data: The top dose, if marked as inferred, comes from the curve model; the source does not state it.

Tests used:
Test in all cases: Viability of human cancer cell lines after 72 h of drug (GDSC screen)
XL-184 = compound: COc1cc2nccc(Oc3ccc(NC(=O)C4(C(=O)Nc5ccc(F)cc5)CC4)cc3)c2cc1OC [XL-184]; conditions: top dose 5.12 µM; top dose inferred
Description: (§1)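 Human cancer cell lines in 384-well plates, medium with 10% serum, drug for 72 h over a 256-fold dose range (nine 2-fold or five 4-fold steps up to the top dose). Adherent lines were fixed and stained with the nucleic acid dye Syto60, suspension lines read with resazurin; signal relative to control wells, capped at 0 and 100%. One two-parameter sigmoid per drug and line, fitted in a mixed model over all curves with the slope shared within a line.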

EHT 1864 = compound: O=c1cc(CN2CCOCC2)occ1OCCCCCSc1ccnc2cc(C(F)(F)F)ccc12 [EHT 1864]; conditions: top dose 10 µM; top dose inferred
Description: as §1

QL-XI-92 = compound: C=CC(=O)Nc1cc(NC(=O)c2ccc(C)c(NC(=O)c3ccno3)c2)cc(C(F)(F)F)c1 [QL-XI-92]; conditions: top dose 10.24 µM; top dose inferred
Description: as §1

Phenformin = compound: N=C(N)NC(=N)NCCc1ccccc1 [Phenformin]; conditions: top dose 4000 µM; top dose inferred
Description: as §1

AG-014699 = compound: CNCc1ccc(-c2[nH]c3cc(F)cc4c3c2CCNC4=O)cc1 [AG-014699]; conditions: top dose 5 µM; top dose inferred
Description: as §1

WHI-P97 = compound: COc1cc2ncnc(Nc3cc(Br)c(O)c(Br)c3)c2cc1OC [WHI-P97]; conditions: top dose 10.24 µM; top dose inferred
Description: as §1

Gefitinib = compound: COc1cc2ncnc(Nc3ccc(F)c(Cl)c3)c2cc1OCCCN1CCOCC1 [Gefitinib]; conditions: top dose 0.5 µM
Description: as §1

Vinorelbine = compound: CCC1=C[C@@H]2CN(C1)Cc1c([nH]c3ccccc13)[C@@](C(=O)OC)(c1cc3c(cc1OC)N(C)[C@H]1[C@@](O)(C(=O)OC)[C@H](OC(C)=O)[C@]4(CC)C=CCN5CC[C@]31[C@@H]54)C2 [Vinorelbine]; conditions: top dose 0.064 µM; top dose inferred
Description: as §1

NU-7441 = compound: O=c1cc(N2CCOCC2)oc2c(-c3cccc4c3sc3ccccc34)cccc12 [NU-7441]; conditions: top dose 2 µM; top dose inferred
Description: as §1

Cell Line | AUC (XL-184) | IC50 (XL-184) | AUC (EHT 1864) | IC50 (EHT 1864) | AUC (QL-XI-92) | IC50 (QL-XI-92) | AUC (Phenformin) | IC50 (Phenformin) | AUC (AG-014699) | IC50 (AG-014699) | AUC (WHI-P97) | IC50 (WHI-P97) | AUC (Gefitinib) | IC50 (Gefitinib) | AUC (Vinorelbine) | IC50 (Vinorelbine) | AUC (NU-7441) | IC50 (NU-7441)
451Lu (melanoma, adherent) | 0.982 | > 5.12 µM | 0.918 | > 10 µM | 0.988 | > 10.2 µM | 0.829 | 2350 µM | 0.977 | > 5 µM | 0.962 | > 10.2 µM | 0.977 | > 0.5 µM | 0.547 | 0.00534 µM | 0.958 | > 2 µM
639-V (bladder, adherent) | 0.989 | > 5.12 µM | 0.979 | > 10 µM | 0.992 | > 10.2 µM | 0.912 | > 4000 µM | 0.992 | > 5 µM | 0.99 | > 10.2 µM | 0.944 | > 0.5 µM | 0.617 | 0.00797 µM | 0.853 | 1.21 µM
647-V (bladder, adherent) | 0.979 | > 5.12 µM | 0.867 | 9.1 µM | 0.979 | > 10.2 µM | 0.946 | > 4000 µM | 0.958 | > 5 µM | 0.975 | > 10.2 µM | 0.925 | > 0.5 µM | 0.69 | 0.0137 µM | 0.941 | > 2 µM
5637 (bladder, adherent) | 0.968 | > 5.12 µM | 0.93 | > 10 µM | 0.923 | > 10.2 µM | 0.976 | > 4000 µM | 0.94 | > 5 µM | 0.94 | > 10.2 µM | 0.963 | > 0.5 µM | 0.547 | 0.0053 µM | 0.976 | > 2 µM
8305C (thyroid, adherent) | 0.942 | > 5.12 µM | 0.933 | > 10 µM | 0.982 | > 10.2 µM | 0.793 | 2500 µM | 0.888 | > 5 µM | 0.97 | > 10.2 µM | 0.974 | > 0.5 µM | 0.534 | 0.00508 µM | 0.858 | > 2 µM
8505C (thyroid, adherent) | 0.937 | > 5.12 µM | 0.946 | > 10 µM | 0.958 | > 10.2 µM | 0.932 | > 4000 µM | 0.935 | > 5 µM | 0.964 | > 10.2 µM | 0.977 | > 0.5 µM | 0.538 | 0.00512 µM | 0.963 | > 2 µM
23132-87 (stomach, adherent) | 0.924 | > 5.12 µM | 0.965 | > 10 µM | 0.981 | > 10.2 µM | 0.893 | > 4000 µM | 0.986 | > 5 µM | 0.972 | > 10.2 µM | 0.986 | > 0.5 µM | 0.538 | 0.00511 µM | 0.961 | > 2 µM
AGS (stomach, adherent) | 0.969 | > 5.12 µM | 0.931 | > 10 µM | 0.99 | > 10.2 µM | 0.85 | 2570 µM | 0.973 | > 5 µM | 0.978 | > 10.2 µM | 0.989 | > 0.5 µM | 0.49 | 0.00376 µM | 0.921 | > 2 µM
ASH-3 (thyroid, adherent) | 0.988 | > 5.12 µM | 0.983 | > 10 µM | 0.988 | > 10.2 µM | 0.937 | > 4000 µM | 0.988 | > 5 µM | 0.988 | > 10.2 µM | 0.988 | > 0.5 µM | 0.826 | 0.0388 µM | 0.971 | > 2 µM
AU565 (breast, adherent) | 0.959 | > 5.12 µM | 0.938 | > 10 µM | 0.968 | > 10.2 µM | 0.798 | 2160 µM | 0.917 | > 5 µM | 0.974 | > 10.2 µM | 0.89 | > 0.5 µM | 0.496 | 0.0039 µM | 0.923 | > 2 µM
AsPC-1 (pancreas, adherent) | 0.931 | > 5.12 µM | 0.918 | > 10 µM | 0.963 | > 10.2 µM | 0.904 | > 4000 µM | 0.926 | > 5 µM | 0.973 | > 10.2 µM | 0.974 | > 0.5 µM | 0.934 | > 0.064 µM | 0.933 | > 2 µM
BFTC-905 (bladder, adherent) | 0.967 | > 5.12 µM | 0.963 | > 10 µM | 0.971 | > 10.2 µM | 0.943 | > 4000 µM | 0.961 | > 5 µM | 0.99 | > 10.2 µM | 0.959 | > 0.5 µM | 0.531 | 0.00479 µM | 0.895 | 1.84 µM
BHT-101 (thyroid, adherent) | 0.907 | > 5.12 µM | 0.915 | > 10 µM | 0.966 | > 10.2 µM | 0.828 | 2580 µM | 0.874 | > 5 µM | 0.982 | > 10.2 µM | 0.976 | > 0.5 µM | 0.944 | > 0.064 µM | 0.889 | > 2 µM
BICR10 (head and neck, adherent) | 0.985 | > 5.12 µM | 0.982 | > 10 µM | 0.974 | > 10.2 µM | 0.964 | > 4000 µM | 0.97 | > 5 µM | 0.985 | > 10.2 µM | 0.982 | > 0.5 µM | 0.822 | 0.0451 µM | 0.974 | > 2 µM
BICR22 (head and neck, adherent) | 0.913 | > 5.12 µM | 0.923 | > 10 µM | 0.967 | > 10.2 µM | 0.203 | 28.2 µM | 0.926 | > 5 µM | 0.974 | > 10.2 µM | 0.896 | > 0.5 µM | 0.899 | > 0.064 µM | 0.914 | > 2 µM
